This passage reports self-cleavage results from the RNAGym collection of RNA variant scans (doi:10.7554/elife.90254).

Read counts are not given, so values of variants with three or more changes are uncertain.

B1: LINE1-mini (parent)
chain: GGCAGAGCUCAACACAGCGUGGCAAAGUGGCUGUGGCUAGACUGCC

The variants in this data set derive from B1. The data set is described as follows: self-cleavage, relative activity (ratio to wild type); higher = more cleavage; in vitro, sequencing; the parent is a self-cleaving ribozyme.
On to GGCAGAGCUCAACACUGCCUGGCAAAUUCGCUGUGGCUAGGCUGCC [A16U G19C G27U G29C A41G], for which the self-cleavage was determined as 0.08.

GGCAGAGCUCAACACUACUUGGCAAAGUGGCUUUGGCUAGACUGCC [A16U G17A G19U G33U]: the self-cleavage stood at 0.01.

As for GGCAGAGCUCAACACGGCGUGGCAAAGUGGCUGUGUCUAGACUUCC [A16G G36U G44U], the self-cleavage is 0.42.

As to GGCAGAGCUCAACACUGCGUGGCAAAGUGGGUGUGGAUAGACUGCC [A16U C31G C37A], the self-cleavage was 0.02.

Take GGCAGAGCUCAACACUGCGUGGCAAUGUGGCUGCGGCUAGACUGCC [A16U A26U U34C]: the self-cleavage is 0.17.

Take GGCAGAGCUCAACACGGCGUGGCAAAGUGUCCGUGGCUAGACUGUC [A16G G30U U32C C45U]: the self-cleavage worked out at 0.59.

As for GGCAGAGCUCAACACGGCGUGGCAAAGUGCCUGUGGCUUUACUGUC [A16G G30C A39U G40U C45U], the self-cleavage is 0.04.

Consider GGCAGAGCUCAACACUGCGUGGCAAAGUGGGUGUGGCUAUACUGUC [A16U C31G G40U C45U], for which the self-cleavage was determined as 0.03.

As for GGCAGAGCUCAACACUGCGUGGCAACUUGGCUGUGGCUAGACCGCC [A16U A26C G27U U43C], the self-cleavage was determined as 0.03.

As for GGCAGAGCUCAACACUGCGUGGCAAUGUGGCUGUGGCUAGCCUGCC [A16U A26U A41C], the self-cleavage was 0.01.

Turning to GGCAGAGCUCAACACUGCGUGGCCAAGUGGCUAUGGAUAGACUGCC [A16U A24C G33A C37A], the self-cleavage stood at 0.05.

Take GGCAGAGCUCAACACUGCGUGGCAAAGUGGCUGUGGCUAGAGUGAC [A16U C42G C45A]: the self-cleavage was determined as 0.02.

For the variant GGCAGAGCUCAACACUGCGUGGCAUAGUGGCUGUGGUUAGACUGCC [A16U A25U C37U], the self-cleavage was determined as 0.06.

With GGCAGAGCUCAACACUGAGUGGCAAAGUGGCUGUGGGUAGACUGCC [A16U C18A C37G], the self-cleavage came to 0.02.

For the variant GGCAGAGCUCAACACUGCGUGGCUAAGUGGCUGUGGCUACCCUGCC [A16U A24U G40C A41C], the self-cleavage was determined as 0.01.

Take GGCAGAGCUCAACACGGCGUGGCAAAGUGGCUGUGGCCAGACUGUC [A16G U38C C45U]: the self-cleavage stood at 0.02.

With GGCAGAGCUCAACACUGCGUAGCAAAGUGGCUGUGGCUAGACUACC [A16U G21A G44A], the self-cleavage is 0.04.

For GGCAGAGCUCAACACUUCGUGGCGAAGUGGCUGUGGCUAGCCUGCC [A16U G17U A24G A41C], the self-cleavage came to 0.01.

As to GGCAGAGCUCAACACGGCGUGGCAAAGUGGCUGUGGCAACACUGCC [A16G U38A G40C], the self-cleavage worked out at 0.01.

As for GGCAGAGCUCAACACGGCGUGGCAAAGUGGCUUGGGCUAGACUCCC [A16G G33U U34G G44C], the self-cleavage was determined as 0.01.

Take GGCAGAGCUCAACACUGGGUGGCAAAGUGACUGUGGCUAGACUGGC [A16U C18G G30A C45G]: the self-cleavage was 0.01.

On to GGCAGAGCUCAACACGGCGUGGCAAAGUGGCUGUUGCUUGAAUGCC [A16G G35U A39U C42A], for which the self-cleavage was 0.

For GGCAGAGCUCAACACUGCGUGGCCAAGUGGCUGUCGCUAGAGUGCC [A16U A24C G35C C42G], the self-cleavage turned out to be 0.01.

For GGCAGAGCUCAACACGGCGUGGCAAAGUGGCUGUGGCAAGAUUGGA [A16G U38A C42U C45G C46A], the self-cleavage is 0.06.

GGCAGAGCUCAACACUGCUUGGUAAAGUGGCAGUGGCUAGACUGCA [A16U G19U C23U U32A C46A]: the self-cleavage was found to be 0.25.

As to GGCAGAGCUCAACACUGCGUGGCAAAGUGGUUGUGGAUAGACUGCA [A16U C31U C37A C46A], the self-cleavage amounted to 0.01.

GGCAGAGCUCAACACUGCGUGGCAAAGUGGUUCUGGCUAGACUGCC [A16U C31U G33C]: the self-cleavage was 0.02.

GGCAGAGCUCAACACUGCGUGGCGAAGUGGCUGUGGCUGGACUGCA [A16U A24G A39G C46A]: the self-cleavage was determined as 0.13.

As to GGCAGAGCUCAACACGGCGUGGCAAAGUGGCUGUGCUUAGACUGUC [A16G G36C C37U C45U], the self-cleavage was 0.05.

Regarding GGCAGAGCUCAACACUGCGUGGCACAGUGGCUGUGGCUAGACUGAU [A16U A25C C45A C46U], the self-cleavage turned out to be 0.01.

As to GGCAGAGCUCAACACUGCGUGGCAAGGUGGCUGUGGCUAUACUGCC [A16U A26G G40U], the self-cleavage stood at 0.03.

For the variant GGCAGAGCUCAACACUGUGUGGCAAAGUGGCUGUGGCUAGACUGAC [A16U C18U C45A], the self-cleavage worked out at 0.02.

Take GGCAGAGCUCAACACUGCGUGGCCAAGUGGCUGUGGCUAGAUUGCC [A16U A24C C42U]: the self-cleavage came out at 0.01.

Consider GGCAGAGCUCAACACUUCGUGGCAAAGUGGCUGUGGCUAGAAUGCC [A16U G17U C42A], for which the self-cleavage turned out to be 0.21.

GGCAGAGCUCAACACUGCGUGGACAAGUGGCUGUGGCUAGGCUGCC [A16U C23A A24C A41G]: the self-cleavage was 0.01.

For GGCAGAGCUCAACACUGCGUAGCAAAGUGGCCGUGGCUAGACUGCG [A16U G21A U32C C46G], the self-cleavage stood at 0.11.

As for GGCAGAGCUCAACACUUCGUGGCAUAGUGGCUGUGGCUAGACUGCC [A16U G17U A25U], the self-cleavage came to 0.08.

Regarding GGCAGAGCUCAACACGGCGUGGCAAAGAGGCUUUGGCUAGACUGCA [A16G U28A G33U C46A], the self-cleavage amounted to 0.02.

For the variant GGCAGAGCUCAACACGGCGUGGCAAAGCGGCUGUGGCUAGACUUCC [A16G U28C G44U], the self-cleavage stood at 0.26.

On to GGCAGAGCUCAACACUGCGUGGCAAUGUGGCUGUGGCUAGACUGAC [A16U A26U C45A], for which the self-cleavage is 0.

With GGCAGAGCUCAACACUCCGUGGCAAAGUUGCUGUGGCUAGACUGCC [A16U G17C G29U], the self-cleavage was found to be 0.42.

On to GGCAGAGCUCAACACUGGGGGGCAAAGUGGCUGUGGCUAGACUGCC [A16U C18G U20G], for which the self-cleavage turned out to be 0.1.

Regarding GGCAGAGCUCAACACGGCGUGGCAAAGUGGCGGUGGCUAGACUGUC [A16G U32G C45U], the self-cleavage worked out at 0.

For GGCAGAGCUCAACACUGCGUGGCUAAGUGGCUGUGGCUAGACUGGC [A16U A24U C45G], the self-cleavage was 0.11.

In the case of GGCAGAGCUCAACACUGCGUGGAAAAGUGCCAGGGGCUAGACUGCC [A16U C23A G30C U32A U34G], the self-cleavage is 0.04.

As to GGCAGAGCUCAACACGGCGUGGCAAAGUGUCUGUGGCUAGAAUGCC [A16G G30U C42A], the self-cleavage stood at 0.05.

With GGCAGAGCUCAACACUGCGUGGCAAAGUGGCUGUGGCUCGAAUGCC [A16U A39C C42A], the self-cleavage worked out at 0.02.

For GGCAGAGCUCAACACGGCGCUGCAAAGUGGCUGUGGCUACACUGCU [A16G U20C G21U G40C C46U], the self-cleavage turned out to be 0.02.

As to GGCAGAGCUCAACACGGCGUGGCAAAGUGGCUGUGCCUAGACCGCC [A16G G36C U43C], the self-cleavage is 0.05.

On to GGCAGAGCUCAACACUUCGUGGCAAAGCGGCUGUGGCUAGAUUGCC [A16U G17U U28C C42U], for which the self-cleavage amounted to 0.01.

As to GGCAGAGCUCAACACGGCGAGGCAAAGUGGCUGUGGCUAGAGUGCC [A16G U20A C42G], the self-cleavage is 0.01.

In the case of GGCAGAGCUCAACACUGCGUGGAAAAGUGGCUGUGGCUGGACUUCC [A16U C23A A39G G44U], the self-cleavage worked out at 0.1.

For GGCAGAGCUCAACACUGCGUGGCACAGUGGCUGUGGCUAGACUACC [A16U A25C G44A], the self-cleavage is 0.01.

For GGCAGAGCUCAACACUGCGUAGCAAAGUGGCCGUGGCUAGACUGCC [A16U G21A U32C], the self-cleavage is 0.

Regarding GGCAGAGCUCAACACUGCGUGGAAAAGUGGCUGUUGCUCGACUGCC [A16U C23A G35U A39C], the self-cleavage came to 0.01.

Take GGCAGAGCUCAACACGGCGUGGCAAAGUGGCAGUGGCUCGACUGCC [A16G U32A A39C]: the self-cleavage was found to be 0.02.
